# Some of the results follow.
# B1: Sebin1 (Coprinopsis cinerea), A8PEE3 (protein)
# chain: MTSPFYAHIHNVQDDNTWRFTLIFANRATADEWWRAISEAPANTSIAKSITRVTPQYYTHDVNIWNIWNFFADGNIKSISERFRGRLFIVLENDRGGRGITVIPPVPIVDHVSGNWFYIRSKTAPHLFWYYDERRSSIYASKEKRTRFKISIRNPSSQTPKNAIMINTDDVTIHIKENLYVGVDNNLGHIIPTRAYRTFKFGELESGAIAGFDVVENIEERCSSTFDGASLSISGPDSSSPGEPWELV
# Assays:
# Assay in all cases: glycan array binding signal (z-score within array); higher = stronger binding
# Conditions in all cases: glycan notation: IUPAC condensed, linker removed
# Fuc(a1-2)Gal = target: Fuc(a1-2)Gal
# How it was run: (§1)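 The binding signal is a Z-score computed within each array and averaged over linkers. Arrays of the same protein sequence at different concentrations or buffers were also averaged together. Data originate from 3228 arrays in the Consortium for Functional Glycomics database, kept only where the protein sequence was available.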
# Fuc(a1-2)Gal(b1-3)GalNAc = target: Fuc(a1-2)Gal(b1-3)GalNAc
# How it was run: as §1
# [1] = target: Fuc(a1-2)Gal(b1-3)GalNAc(a1-3)[Fuc(a1-2)]Gal(b1-4)Glc
# How it was run: as §1
# [2] = target: Fuc(a1-2)Gal(b1-3)GalNAc(a1-3)[Fuc(a1-2)]Gal(b1-4)GlcNAc
# How it was run: as §1
# [3] = target: Fuc(a1-2)Gal(b1-3)GalNAc(b1-3)Gal
# How it was run: as §1
# [4] = target: Fuc(a1-2)Gal(b1-3)GalNAc(b1-3)Gal(a1-4)Gal(b1-4)Glc
# How it was run: as §1
# [5] = target: Fuc(a1-2)Gal(b1-3)GalNAc(b1-4)[Neu5Ac(a2-3)]Gal(b1-4)Glc
# How it was run: as §1
# Fuc(a1-2)Gal(b1-3)GlcNAc = target: Fuc(a1-2)Gal(b1-3)GlcNAc
# How it was run: as §1
# [6] = target: Fuc(a1-2)Gal(b1-3)GlcNAc(b1-2)Man(a1-3)[Fuc(a1-2)Gal(b1-3)GlcNAc(b1-2)Man(a1-6)]Man(b1-4)GlcNAc(b1-4)GlcNAc
# How it was run: as §1
# [7] = target: Fuc(a1-2)Gal(b1-3)GlcNAc(b1-2)Man(a1-3)[Fuc(a1-2)Gal(b1-3)GlcNAc(b1-2)Man(a1-6)]Man(b1-4)GlcNAc(b1-4)[Fuc(a1-6)]GlcNAc
# How it was run: as §1
# [8] = target: Fuc(a1-2)Gal(b1-3)GlcNAc(b1-3)Gal(b1-4)Glc
# How it was run: as §1
# [9] = target: Fuc(a1-2)Gal(b1-3)GlcNAc(b1-3)GalNAc
# How it was run: as §1
# [10] = target: Fuc(a1-2)Gal(b1-3)GlcNAc(b1-3)[Fuc(a1-2)Gal(b1-3)GlcNAc(b1-6)]GalNAc
# How it was run: as §1
# [11] = target: Fuc(a1-2)Gal(b1-3)GlcNAc(b1-3)[Gal(b1-4)GlcNAc(b1-6)]Gal(b1-4)Glc
# How it was run: as §1
# [12] = target: Fuc(a1-2)Gal(b1-3)GlcNAc(b1-3)[Neu5Ac(a2-6)Gal(b1-4)GlcNAc(b1-6)]Gal(b1-4)Glc
# How it was run: as §1
# [13] = target: Fuc(a1-2)Gal(b1-3)GlcNAc6S
# How it was run: as §1
# [14] = target: Fuc(a1-2)Gal(b1-3)[Fuc(a1-4)]GlcNAc
# How it was run: as §1
# [15] = target: Fuc(a1-2)Gal(b1-3)[Fuc(a1-4)]GlcNAc(b1-2)Man(a1-3)[Fuc(a1-2)Gal(b1-3)[Fuc(a1-4)]GlcNAc(b1-2)Man(a1-3)]Man(b1-4)GlcNAc(b1-4)GlcNAc
# How it was run: as §1
# [16] = target: Fuc(a1-2)Gal(b1-3)[Fuc(a1-4)]GlcNAc(b1-2)Man(a1-3)[Fuc(a1-2)Gal(b1-3)[Fuc(a1-4)]GlcNAc(b1-2)Man(a1-6)]Man(b1-4)GlcNAc(b1-4)[Fuc(a1-6)]GlcNAc(b1-4)[Fuc(a1-6)]GlcNAc
# How it was run: as §1
# [17] = target: Fuc(a1-2)Gal(b1-3)[Fuc(a1-4)]GlcNAc(b1-3)[Fuc(a1-3)[Gal(b1-4)]GlcNAc(b1-6)]Gal(b1-4)Glc
# How it was run: as §1
# [18] = target: Fuc(a1-2)Gal(b1-3)[Fuc(a1-4)]GlcNAc(b1-3)[Gal(b1-4)GlcNAc(b1-6)]Gal(b1-4)Glc
# How it was run: as §1
# [19] = target: Fuc(a1-2)Gal(b1-4)Fuc(a1-3)]GlcNAc(b1-2)Man(a1-3)[Fuc(a1-2)Gal(b1-4)[Fuc(a1-3)]GlcNAc(b1-2)Man(a1-6)]Man(b1-4)GlcNAc(b1-4)GlcNAc
# How it was run: as §1
# Fuc(a1-2)Gal(b1-4)Glc = target: Fuc(a1-2)Gal(b1-4)Glc
# How it was run: as §1
# Fuc(a1-2)Gal(b1-4)Glc6S = target: Fuc(a1-2)Gal(b1-4)Glc6S
# How it was run: as §1
# Fuc(a1-2)Gal(b1-4)GlcNAc = target: Fuc(a1-2)Gal(b1-4)GlcNAc
# How it was run: as §1
# [20] = target: Fuc(a1-2)Gal(b1-4)GlcNAc(b1-2)Man
# How it was run: as §1
# [21] = target: Fuc(a1-2)Gal(b1-4)GlcNAc(b1-2)Man(a1-3)[Fuc(a1-2)Gal(b1-4)GlcNAc(b1-2)Man(a1-6)]Man(b1-4)GlcNAc(b1-4)GlcNAc
# How it was run: as §1
# [22] = target: Fuc(a1-2)Gal(b1-4)GlcNAc(b1-2)Man(a1-3)[Fuc(a1-2)Gal(b1-4)GlcNAc(b1-2)Man(a1-6)]Man(b1-4)GlcNAc(b1-4)[Fuc(a1-6)]GlcNAc
# How it was run: as §1
# [23] = target: Fuc(a1-2)Gal(b1-4)GlcNAc(b1-2)[Fuc(a1-2)Gal(b1-4)GlcNAc(b1-4)]Man(a1-3)[Fuc(a1-2)Gal(b1-4)GlcNAc(b1-2)Man(a1-6)]Man(b1-4)GlcNAc(b1-4)GlcNAc
# How it was run: as §1
# [24] = target: Fuc(a1-2)Gal(b1-4)GlcNAc(b1-3)Gal(b1-4)GlcNAc
# How it was run: as §1
# [25] = target: Fuc(a1-2)Gal(b1-4)GlcNAc(b1-3)Gal(b1-4)GlcNAc(b1-2)Man(a1-3)[Fuc(a1-2)Gal(b1-4)GlcNAc(b1-3)Gal(b1-4)GlcNAc(b1-2)Man(a1-6)]Man(b1-4)GlcNAc(b1-4)GlcNAc
# How it was run: as §1
# [26] = target: Fuc(a1-2)Gal(b1-4)GlcNAc(b1-3)Gal(b1-4)GlcNAc(b1-3)Gal(b1-4)GlcNAc
# How it was run: as §1
# [27] = target: Fuc(a1-2)Gal(b1-4)GlcNAc(b1-3)GalNAc
# How it was run: as §1
# [28] = target: Fuc(a1-2)Gal(b1-4)GlcNAc(b1-3)[Fuc(a1-2)Gal(b1-4)GlcNAc(b1-6)]GalNAc
# How it was run: as §1
# [29] = target: Fuc(a1-2)Gal(b1-4)GlcNAc(b1-3)[Fuc(a1-3)[Gal(b1-4)]GlcNAc(b1-6)]Gal(b1-4)Glc
# How it was run: as §1
# [30] = target: Fuc(a1-2)Gal(b1-4)GlcNAc(b1-6)GalNAc
# How it was run: as §1
# [31] = target: Fuc(a1-2)Gal(b1-4)GlcNAc6S
# How it was run: as §1
# [32] = target: Fuc(a1-2)Gal(b1-4)[Fuc(a1-3)]GlcNAc
# How it was run: as §1
# [33] = target: Fuc(a1-2)Gal(b1-4)[Fuc(a1-3)]GlcNAc(b1-2)Man(a1-3)[Fuc(a1-2)Gal(b1-4)[Fuc(a1-3)]GlcNAc(b1-2)Man(a1-6)]Man(b1-4)GlcNAc(b1-4)[Fuc(a1-6)]GlcNAc
# How it was run: as §1
# [34] = target: Fuc(a1-2)Gal(b1-4)[Fuc(a1-3)]GlcNAc(b1-2)[Fuc(a1-2)Gal(b1-4)[Fuc(a1-3)]GlcNAc(b1-4)]Man(a1-3)[Fuc(a1-2)Gal(b1-4)[Fuc(a1-3)]GlcNAc(b1-2)Man(a1-6)]Man(b1-4)GlcNAc(b1-4)GlcNAc
# How it was run: as §1
# [35] = target: Fuc(a1-2)Gal(b1-4)[Fuc(a1-3)]GlcNAc(b1-3)Gal(b1-4)[Fuc(a1-3)]GlcNAc
# How it was run: as §1
# [36] = target: Fuc(a1-2)Gal(b1-4)[Fuc(a1-3)]GlcNAc(b1-3)Gal(b1-4)[Fuc(a1-3)]GlcNAc(b1-3)Gal(b1-4)[Fuc(a1-3)]GlcNAc
# How it was run: as §1
# [37] = target: Fuc(a1-2)Gal(b1-4)[Fuc(a1-3)]GlcNAc(b1-3)GalNAc
# How it was run: as §1
# [38] = target: Fuc(a1-2)Gal(b1-4)[Fuc(a1-3)]GlcNAc(b1-3)[Neu5Ac(a2-6)Gal(b1-4)GlcNAc(b1-6)]Gal(b1-4)Glc
# How it was run: as §1
# [39] = target: Fuc(a1-2)Gal3S(b1-4)GlcNAc
# How it was run: as §1
binder,measurement,setting,value
B1,glycan array binding signal (z-score),Fuc(a1-2)Gal,-0.454
same,glycan array binding signal (z-score),Fuc(a1-2)Gal(b1-3)GalNAc,-0.284
same,glycan array binding signal (z-score),[1],0.089
same,glycan array binding signal (z-score),[2],-0.438
same,glycan array binding signal (z-score),[3],-0.313
same,glycan array binding signal (z-score),[4],0.198
same,glycan array binding signal (z-score),[5],-0.103
same,glycan array binding signal (z-score),Fuc(a1-2)Gal(b1-3)GlcNAc,-0.406
same,glycan array binding signal (z-score),[6],0.775
same,glycan array binding signal (z-score),[7],0.497
same,glycan array binding signal (z-score),[8],-0.016
same,glycan array binding signal (z-score),[9],-0.114
same,glycan array binding signal (z-score),[10],0.851
same,glycan array binding signal (z-score),[11],0.569
same,glycan array binding signal (z-score),[12],-0.147
same,glycan array binding signal (z-score),[13],-0.106
same,glycan array binding signal (z-score),[14],-0.178
same,glycan array binding signal (z-score),[15],-0.126
same,glycan array binding signal (z-score),[16],0.098
same,glycan array binding signal (z-score),[17],0.083
same,glycan array binding signal (z-score),[18],0.147
same,glycan array binding signal (z-score),[19],1.59
same,glycan array binding signal (z-score),Fuc(a1-2)Gal(b1-4)Glc,-0.509
same,glycan array binding signal (z-score),Fuc(a1-2)Gal(b1-4)Glc6S,-0.276
same,glycan array binding signal (z-score),Fuc(a1-2)Gal(b1-4)GlcNAc,-0.421
same,glycan array binding signal (z-score),[20],0.046
same,glycan array binding signal (z-score),[21],0.126
same,glycan array binding signal (z-score),[22],-0.052
same,glycan array binding signal (z-score),[23],-0.038
same,glycan array binding signal (z-score),[24],-0.293
same,glycan array binding signal (z-score),[25],-0.103
same,glycan array binding signal (z-score),[26],-0.188
same,glycan array binding signal (z-score),[27],-0.216
same,glycan array binding signal (z-score),[28],-0.085
same,glycan array binding signal (z-score),[29],-0.909
same,glycan array binding signal (z-score),[30],4.71
same,glycan array binding signal (z-score),[31],-0.525
same,glycan array binding signal (z-score),[32],-0.485
same,glycan array binding signal (z-score),[33],-0.24
same,glycan array binding signal (z-score),[34],-0.182
same,glycan array binding signal (z-score),[35],-0.115
same,glycan array binding signal (z-score),[36],0.072
same,glycan array binding signal (z-score),[37],0.966
same,glycan array binding signal (z-score),[38],0.315
same,glycan array binding signal (z-score),[39],-0.455
